Variants at the background level are over-represented here.

Sequences and labels used below:
B1: tRNA (parent)
chain: CUCUCGGUAGCCAAGUUGGUUUAAGGCGCAAGACUUUAAUUUAUCACUACGAAAUCUUGAGAUCGGGCGUUCGACUCGCCCCCGGGAGAUUUUUUCCUCGAGCAA

The variants in the series derive from B1. Kind of series: nonsense suppression (GFP-seq) (ratio to wild type); higher = more function; SUP4oc tRNA, yeast GFP reporter sort-seq. An outline of the steps:
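Sorted GFP/RFP bins of yeast were each Illumina-sequenced with a phred ≥30 cutoff; the cells held a genome-integrated ochre-suppressor tRNA variant from a library with ~3% random mutations, a galactose-driven GFP ochre reporter, and RFP. Culture was in raffinose/galactose medium containing 80 mg/L adenine. Nonsense suppression, termed GFPSEQ, is the median GFP/RFP of the bins weighted by each variant's estimated cell share per bin, relative to the unmutated parent tRNA, for variants reaching ≥100 reads and ≥30 cells.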
In the case of A23G C34U G61A G88A, the nonsense suppression was not above 0.026.
With C1G C5U U57A the figure was not above 0.026; with G6U C27U C64A, not above 0.026; with A33G U63C C77G C79G, not above 0.026.
With C81U C83A the figure was not above 0.026.
With U21G A54G A62C U63A U71A C75U the figure was not above 0.026; with G10U C29G A60U, not above 0.026; with U17C U21G, 0.801.
In the case of A9G G15C C29A G32U C34G, the nonsense suppression was not above 0.026.
With C1U C5U A13C G88A the figure was not above 0.026.
As for A31G G86U, the nonsense suppression is not above 0.026.
With G19C G59C U63C the figure was not above 0.026; with G65A G78A, 0.0493.
As to C34U U55G C56A C75G C81A, the nonsense suppression was not above 0.026.
With U8G U57G, the nonsense suppression was not above 0.026.
With C11U U76A the figure was not above 0.026; with U76A C79G, not above 0.026; with A23U C82A, not above 0.026.
Consider A24G C56A, for which the nonsense suppression was not above 0.026.
With G6A G10U the figure was not above 0.026; with U8A A9C A30G G61A C75G, not above 0.026.
With G15U U71A C82G, the nonsense suppression is not above 0.026.
With C11G C80A the figure was not above 0.026; with G7C A33C, not above 0.026.
Take C77U G84C: the nonsense suppression is not above 0.026.
With A30G G32C G88U, the nonsense suppression is not above 0.026.
Take C5U A23U U63C: the nonsense suppression was not above 0.026.
With A14G C34G the figure was not above 0.026.
With U17A A30G C72G A89U the figure was not above 0.026; with G61A U63A G88U, not above 0.026.
With C1U A30U the figure was not above 0.026; with A13C U17G C82U, 0.142; with G19U A54G, not above 0.026.
On to G61A G66A U70C, for which the nonsense suppression was not above 0.026.
For the variant C5A A60G G67U U70C G78A C81A, the nonsense suppression was not above 0.026.
On to C5U G10U U55A, for which the nonsense suppression was not above 0.026.
As to A31G A54U, the nonsense suppression was determined as 0.627.
With A60G G86A the figure was not above 0.026.
With G65U C82A the figure was not above 0.026; with A13C G67U C77A, not above 0.026; with U17G C72G, not above 0.026.
With C1U C5U G15C A54G G61C G69A the figure was not above 0.026; with C12U G15U, not above 0.026.
As to C11G U16C A62G, the nonsense suppression was not above 0.026.
For A23U G32C, the nonsense suppression is not above 0.026.
As for G61A U71A, the nonsense suppression was not above 0.026.
As for C11G G69A, the nonsense suppression was not above 0.026.
With A24C G78U the figure was 0.0343.
With C11G U22C C83G the figure was not above 0.026; with G10A C56G, not above 0.026.
With U20A G84C the figure was not above 0.026.
Turning to C11A A87G G88A, the nonsense suppression was not above 0.026.
For C27U G88U, the nonsense suppression was not above 0.026.
With C29U G61U the figure was 0.754; with U57C U63G C75U, not above 0.026.
With U16C C29U the figure was 1.11; with U2C C3A C27U C83A, not above 0.026.
With G15C U17C G67C C83U G88A the figure was not above 0.026.
For the variant U35C U70A, the nonsense suppression is not above 0.026.
With C5A A74G the figure was not above 0.026; with A23C G86A, not above 0.026; with A24C C56U G88U A89U, not above 0.026.
With U2C G26U U76A the figure was not above 0.026.
With U8A A23C A54G C64U the figure was not above 0.026.
Take U21C A24U U63A G88U: the nonsense suppression is not above 0.026.
With A54G G84C the figure was not above 0.026; with C5U U57G C79A, not above 0.026.
With U20G A62U the figure was not above 0.026; with G7C G28U C77A, not above 0.026.
With A24C C27U U71G the figure was not above 0.026; with C3G A14C U63G, not above 0.026; with G6U A31U, not above 0.026.
On to U17A G88A, for which the nonsense suppression was not above 0.026.
With A31U C72G the figure was not above 0.026.
With C11G C12U G61C the figure was not above 0.026; with C11U A30U C56U, not above 0.026; with A13U U58G A74U C75G, not above 0.026.
As for G73A G88C, the nonsense suppression is not above 0.026.
With A14C U76C G78C G88C the figure was not above 0.026; with A62U A89G, not above 0.026; with A14U A24C, 0.0284.
With C1A G6A U16A U20G A23C G59A G73C the figure was not above 0.026; with C29A A62U U71C U76A C79G, not above 0.026.

For the origin of these results see the RNAGym collection of RNA variant scans (doi:10.1101/gad.245936.114).
